Data taken from US20040022787A1 (Bristol-Myers Squibb, published 2004).

B1: L104EA29LIg (Fc fusion)
chain: MHVAQPAVVLASSRGIASFVCEYASPGKLTEVRVTVLRQADSQVTEVCAATYMMGNELTFLDDSICTGTSSGNQVNLTIQGLRAMDTGLYICKVELMYPPPYYEGIGNGTQIYVIDPEPCPDSDQ[gap - human IgG1 Fc with changes]
notes: Tested as COS cell culture medium
B2: L104EA29WIg (Fc fusion)
chain: MHVAQPAVVLASSRGIASFVCEYASPGKWTEVRVTVLRQADSQVTEVCAATYMMGNELTFLDDSICTGTSSGNQVNLTIQGLRAMDTGLYICKVELMYPPPYYEGIGNGTQIYVIDPEPCPDSDQ[gap - human IgG1 Fc with changes]
notes: as for B1
B3: L104EA29TIg (Fc fusion)
chain: MHVAQPAVVLASSRGIASFVCEYASPGKTTEVRVTVLRQADSQVTEVCAATYMMGNELTFLDDSICTGTSSGNQVNLTIQGLRAMDTGLYICKVELMYPPPYYEGIGNGTQIYVIDPEPCPDSDQ[gap - human IgG1 Fc with changes]
notes: as for B1

molecular target: T1, CD86Ig (UniProt P42081 24-247); test: SPR screening of COS culture media over immobilized CD86Ig
T1 construct: Immobilized on the BIAcore sensor chip; also called soluble CD86Ig

Sequence of CD86Ig (P42081 24-247): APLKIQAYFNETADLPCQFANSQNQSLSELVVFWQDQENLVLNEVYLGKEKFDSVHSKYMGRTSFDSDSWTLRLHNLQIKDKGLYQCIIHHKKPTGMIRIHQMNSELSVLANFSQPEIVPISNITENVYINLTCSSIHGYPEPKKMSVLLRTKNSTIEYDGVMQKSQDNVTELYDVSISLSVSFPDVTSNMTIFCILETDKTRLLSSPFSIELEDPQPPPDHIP

Fold slower off rate than wild type CTLA4Ig, ~4 fold:
B1
B2
B3
